# Results as given in the supplement of paper PMC8728848.
# Some of the results follow.
# B1: GNA (Galanthus nivalis), P30617 (protein)
# chain: MAKASLLILAAIFLGVITPSCLSDNILYSGETLSTGEFLNYGSFVFIMQEDCNLVLYDVDKPIWATNTGGLSRSCFLSMQTDGNLVVYNPSNKPIWASNTGGQNGNYVCILQKDRNVVIYGTDRWATGTHTGLVGIPASPPSEKYPTAGKIKLVTAK
# Legend:
# Test in all cases: glycan array binding signal (z-score within array); higher = stronger binding
# Conditions in all cases: glycan notation: IUPAC condensed, linker removed
# [1] = target: Neu5Ac(a2-6)Gal(b1-4)GlcNAc(b1-2)Man(a1-3)[Neu5Ac(a2-3)Gal(b1-4)GlcNAc(b1-2)Man(a1-6)]Man(b1-4)GlcNAc(b1-4)GlcNAc
# Method in brief: (§1)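 Glycan array data were curated from 3228 arrays in the Consortium for Functional Glycomics database and kept only where the protein sequence was available. Glycan names were converted to IUPAC-condensed notation, and columns mapping to the same glycan were averaged. The binding signal is a within-array Z-score, averaged across arrays of the same protein sequence at different concentrations or buffers and across linkers. Negative Z-scores can be read as non-binding.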
# [2] = target: Neu5Ac(a2-6)Gal(b1-4)GlcNAc(b1-2)Man(a1-3)[Neu5Ac(a2-6)Gal(b1-4)GlcNAc(b1-2)Man(a1-6)]Man(b1-4)GlcNAc(b1-4)GlcNAc
# Method in brief: as §1
# [3] = target: Neu5Ac(a2-6)Gal(b1-4)GlcNAc(b1-2)Man(a1-3)[Neu5Ac(a2-6)Gal(b1-4)GlcNAc(b1-2)Man(a1-6)]Man(b1-4)GlcNAc(b1-4)[Fuc(a1-6)]GlcNAc
# Method in brief: as §1
# [4] = target: Neu5Ac(a2-6)Gal(b1-4)GlcNAc(b1-2)Man(a1-6)Man(b1-4)GlcNAc(b1-4)GlcNAc
# Method in brief: as §1
# [5] = target: Neu5Ac(a2-6)Gal(b1-4)GlcNAc(b1-2)Man(a1-6)[Gal(b1-4)GlcNAc(b1-2)Man(a1-3)]Man(b1-4)GlcNAc(b1-4)GlcNAc
# Method in brief: as §1
# [6] = target: Neu5Ac(a2-6)Gal(b1-4)GlcNAc(b1-2)Man(a1-6)[GlcNAc(b1-2)Man(a1-3)]Man(b1-4)GlcNAc(b1-4)GlcNAc
# Method in brief: as §1
# [7] = target: Neu5Ac(a2-6)Gal(b1-4)GlcNAc(b1-2)Man(a1-6)[Man(a1-3)]Man(b1-4)GlcNAc(b1-4)GlcNAc
# Method in brief: as §1
# [8] = target: Neu5Ac(a2-6)Gal(b1-4)GlcNAc(b1-2)[Neu5Ac(a2-6)Gal(b1-4)GlcNAc(b1-4)]Man(a1-3)[GlcNAc(b1-4)][Neu5Ac(a2-6)Gal(b1-4)GlcNAc(b1-2)[Neu5Ac(a2-6)Gal(b1-4)GlcNAc(b1-6)]Man(a1-6)]Man(b1-4)GlcNAc(b1-4)GlcNAc
# Method in brief: as §1
# [9] = target: Neu5Ac(a2-6)Gal(b1-4)GlcNAc(b1-2)[Neu5Ac(a2-6)Gal(b1-4)GlcNAc(b1-4)]Man(a1-3)[GlcNAc(b1-4)][Neu5Ac(a2-6)Gal(b1-4)GlcNAc(b1-4)Man(a1-6)]Man(b1-4)GlcNAc(b1-4)GlcNAc
# Method in brief: as §1
# [10] = target: Neu5Ac(a2-6)Gal(b1-4)GlcNAc(b1-2)[Neu5Ac(a2-6)Gal(b1-4)GlcNAc(b1-6)]Man(a1-6)[Neu5Ac(a2-6)Gal(b1-4)GlcNAc(b1-2)Man(a1-3)][GlcNAc(b1-4)]Man(b1-4)GlcNAc(b1-4)GlcNAc
# Method in brief: as §1
# [11] = target: Neu5Ac(a2-6)Gal(b1-4)GlcNAc(b1-3)Gal(b1-3)GlcNAc
# Method in brief: as §1
# [12] = target: Neu5Ac(a2-6)Gal(b1-4)GlcNAc(b1-3)Gal(b1-4)GlcNAc
# Method in brief: as §1
# [13] = target: Neu5Ac(a2-6)Gal(b1-4)GlcNAc(b1-3)Gal(b1-4)GlcNAc(b1-2)Man(a1-3)[Neu5Ac(a2-6)Gal(b1-4)GlcNAc(b1-3)Gal(b1-4)GlcNAc(b1-2)Man(a1-6)]GalNAc
# Method in brief: as §1
# [14] = target: Neu5Ac(a2-6)Gal(b1-4)GlcNAc(b1-3)Gal(b1-4)GlcNAc(b1-3)Gal(b1-4)GlcNAc
# Method in brief: as §1
# [15] = target: Neu5Ac(a2-6)Gal(b1-4)GlcNAc(b1-3)Gal(b1-4)GlcNAc(b1-3)Gal(b1-4)GlcNAc(b1-2)Man(a1-3)[Neu5Ac(a2-6)Gal(b1-4)GlcNAc(b1-3)Gal(b1-4)GlcNAc(b1-3)Gal(b1-4)GlcNAc(b1-2)Man(a1-6)]GalNAc
# Method in brief: as §1
# [16] = target: Neu5Ac(a2-6)Gal(b1-4)GlcNAc(b1-3)Gal(b1-4)GlcNAc(b1-3)GalNAc
# Method in brief: as §1
# [17] = target: Neu5Ac(a2-6)Gal(b1-4)GlcNAc(b1-3)Gal(b1-4)GlcNAc(b1-3)[Neu5Ac(a2-6)Gal(b1-4)GlcNAc(b1-3)Gal(b1-4)GlcNAc(b1-6)]GalNAc
# Method in brief: as §1
# [18] = target: Neu5Ac(a2-6)Gal(b1-4)GlcNAc(b1-3)Gal(b1-4)GlcNAc(b1-6)[Gal(b1-3)]GalNAc
# Method in brief: as §1
# [19] = target: Neu5Ac(a2-6)Gal(b1-4)GlcNAc(b1-3)Gal(b1-4)[Fuc(a1-3)]GlcNAc(b1-3)Gal(b1-4)[Fuc(a1-3)]GlcNAc
# Method in brief: as §1
# [20] = target: Neu5Ac(a2-6)Gal(b1-4)GlcNAc(b1-3)GalNAc
# Method in brief: as §1
# [21] = target: Neu5Ac(a2-6)Gal(b1-4)GlcNAc(b1-3)[Neu5Ac(a2-6)Gal(b1-4)GlcNAc(b1-6)]GalNAc
# Method in brief: as §1
# [22] = target: Neu5Ac(a2-6)Gal(b1-4)GlcNAc(b1-6)GalNAc
# Method in brief: as §1
# [23] = target: Neu5Ac(a2-6)Gal(b1-4)GlcNAc(b1-6)[Gal(b1-3)GlcNAc(b1-3)]Gal(b1-4)Glc
# Method in brief: as §1
# [24] = target: Neu5Ac(a2-6)Gal(b1-4)GlcNAc(b1-6)[Gal(b1-3)]GalNAc
# Method in brief: as §1
# [25] = target: Neu5Ac(a2-6)Gal(b1-4)GlcNAc6S
# Method in brief: as §1
# Neu5Ac(a2-6)GalNAc = target: Neu5Ac(a2-6)GalNAc
# Method in brief: as §1
# [26] = target: Neu5Ac(a2-6)GalNAc(b1-4)GlcNAc
# Method in brief: as §1
# [27] = target: Neu5Ac(a2-6)GalNAc(b1-4)GlcNAc6S
# Method in brief: as §1
# [28] = target: Neu5Ac(a2-6)GlcNAc(b1-4)GlcNAc
# Method in brief: as §1
# [29] = target: Neu5Ac(a2-6)GlcNAc(b1-4)GlcNAc(b1-4)GlcNAc
# Method in brief: as §1
# Neu5Ac(a2-8)Neu5Ac = target: Neu5Ac(a2-8)Neu5Ac
# Method in brief: as §1
binder,measurement,setting,value
B1,glycan array binding signal (z-score),[1],-0.156
same,glycan array binding signal (z-score),[2],-0.114
same,glycan array binding signal (z-score),[3],-0.157
same,glycan array binding signal (z-score),[4],-0.208
same,glycan array binding signal (z-score),[5],-0.129
same,glycan array binding signal (z-score),[6],0.002
same,glycan array binding signal (z-score),[7],1.79
same,glycan array binding signal (z-score),[8],-0.176
same,glycan array binding signal (z-score),[9],-0.167
same,glycan array binding signal (z-score),[10],-0.148
same,glycan array binding signal (z-score),[11],-0.194
same,glycan array binding signal (z-score),[12],-0.2
same,glycan array binding signal (z-score),[13],-0.083
same,glycan array binding signal (z-score),[14],-0.169
same,glycan array binding signal (z-score),[15],-0.029
same,glycan array binding signal (z-score),[16],-0.151
same,glycan array binding signal (z-score),[17],0.016
same,glycan array binding signal (z-score),[18],-0.122
same,glycan array binding signal (z-score),[19],-0.133
same,glycan array binding signal (z-score),[20],-0.14
same,glycan array binding signal (z-score),[21],-0.161
same,glycan array binding signal (z-score),[22],-0.155
same,glycan array binding signal (z-score),[23],-0.179
same,glycan array binding signal (z-score),[24],-0.154
same,glycan array binding signal (z-score),[25],-0.139
same,glycan array binding signal (z-score),Neu5Ac(a2-6)GalNAc,-0.233
same,glycan array binding signal (z-score),[26],-0.177
same,glycan array binding signal (z-score),[27],-0.173
same,glycan array binding signal (z-score),[28],-0.212
same,glycan array binding signal (z-score),[29],-0.197
same,glycan array binding signal (z-score),Neu5Ac(a2-8)Neu5Ac,-0.204
